Experimental data taken from the supplement of paper PMC3334620.
The full ranking holds about 33,000 sequences; the median of “E-score (-0.5 to 0.5)” is about -0.012, and the highest 2% start at about 0.27. Some of the results follow.

Target: T1, Vhr1 (UniProt P40522)
T1 sequence: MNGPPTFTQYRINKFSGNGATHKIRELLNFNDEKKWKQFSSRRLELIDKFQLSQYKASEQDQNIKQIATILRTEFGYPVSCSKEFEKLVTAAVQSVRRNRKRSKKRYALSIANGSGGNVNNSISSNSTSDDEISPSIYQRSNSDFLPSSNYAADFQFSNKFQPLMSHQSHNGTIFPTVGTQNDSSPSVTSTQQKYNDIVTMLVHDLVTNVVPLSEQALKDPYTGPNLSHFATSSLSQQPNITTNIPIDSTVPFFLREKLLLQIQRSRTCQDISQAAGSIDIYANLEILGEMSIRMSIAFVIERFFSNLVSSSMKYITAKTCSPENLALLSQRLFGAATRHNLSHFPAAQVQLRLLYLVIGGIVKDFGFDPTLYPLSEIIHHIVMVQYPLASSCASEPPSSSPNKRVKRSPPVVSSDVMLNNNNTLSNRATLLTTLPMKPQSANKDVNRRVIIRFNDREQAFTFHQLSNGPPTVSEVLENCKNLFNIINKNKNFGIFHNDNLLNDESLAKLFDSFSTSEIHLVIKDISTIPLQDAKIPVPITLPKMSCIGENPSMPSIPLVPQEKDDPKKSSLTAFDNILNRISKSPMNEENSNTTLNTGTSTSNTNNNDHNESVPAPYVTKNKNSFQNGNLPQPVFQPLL
Test: PBM E-score (8-mer binding enrichment) (E-score (-0.5 to 0.5)); higher = stronger / more preferred TF binding; most listed sequences are background and not binding sites
Details: protein concentration: 200 nM; construct: GST-full length
In short: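 The E-score, a modified Wilcoxon-Mann-Whitney statistic, was computed by the Universal PBM Analysis Suite for every ungapped eight-base word pooled with its reverse complement. Scans behind it were normalised with masliner after bound GST-tagged yeast transcription factors were detected with fluorescent anti-GST. The proteins, at about 100-200 nM, had been applied to universal all-10-mer Agilent arrays made double-stranded by primer extension.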

In order of falling “PBM E-score” value:
1. ACTCACGG  0.352
2. AATCATGA  0.331
3. CGCGATTC  0.278
4. GGGACTCA  0.261
5. AATACAAG  0.26
6. GCCGCGGC  0.237
7. AATCGCGC  0.231
8. ATGACGAC  0.229
9. ATCATGGA  0.22
10. GGTGACAC  0.218
11. CGCGGTGA  0.21
12. CACACGGG  0.192
13. GATATACC  0.165
14. CCATTCCA  0.164
15. CAAATACA  0.161
16. CCTCCCCG  0.155
17. ATCATCCC  0.149
18. TAACCGCA  0.148
19. CGGAGACA  0.139
20. AAGTTTGC  0.133
21. CCAAGTCA  0.133
22. AACGCACA  0.13
23. ACCGCATC  0.126
24. CCATACCC  0.113
25. CATAGCGC  0.105
26. CATGCGCG  0.102
27. ACCAGATG  0.101
28. ACCACGCG  0.0984
29. GATGTGAA  0.0877
30. ACTAAACA  0.0858
31. GCGACCGA  0.0781
32. CAGATTCG  0.069
33. ATAGTGGG  0.063
34. AACCAACA  0.063
35. AACTCGTA  0.0622
36. CGCTCTGC  0.0608
37. CGTTTATC  0.0605
38. ATCGATCC  0.0602
39. ACCGTGGA  0.0577
40. CGTGGCAG  0.057
41. GCTTCATA  0.0559
42. CAAACAGG  0.0517
43. AAAATTCG  0.0473
44. CAGCGGGC  0.0388
45. AGGCGCCA  0.0323
46. CCCCCGGA  0.0245
47. CCTGCTCC  0.0238
48. CGAGCAGA  0.0217
49. GGTCCGAC  0.0207
50. TCGCACGA  0.0168
51. CGATCAAA  0.0148
52. CGGGCCCC  0.0114
53. AGATATCA  0.0108
54. AATGGAGC  0.0103
55. CCAGACCC  0.009
56. CGTTTGAG  0.00422
57. CTGTGGGA  0.00015
58. CTGTGGGC  -4e-05
59. CCACACGA  -0.00498
60. AAGAAGTC  -0.00524
61. CAGTTTCG  -0.00977
62. CAGTAAGA  -0.0112
63. AACGCGTT  -0.0116
64. CGAGAAAG  -0.012
65. GTCAACCA  -0.0131
66. CAACAGAG  -0.0195
67. CTACGAGA  -0.0207
68. TGGTATAA  -0.0214
69. TCAAGACA  -0.0364
70. AAAACATC  -0.0435
71. CATAACGC  -0.0468
72. GGCACCGA  -0.0544
73. AAACGAAA  -0.057
74. AGATCACC  -0.0605
75. AAGCTCAG  -0.0615
76. CTAATTTC  -0.0654
77. AGGAATTA  -0.0656
78. ATGCTTGG  -0.068
79. GCGATAGC  -0.0722
80. CATAGCGG  -0.085
81. GAAGCAAC  -0.086
82. GGGTTAAA  -0.086
83. CCGAGGGA  -0.0926
84. TAAGCTCA  -0.0939
85. AAACTTCC  -0.0962
86. AGTTTGGC  -0.0973
87. CTTCTGTA  -0.102
88. CAGCTCCA  -0.104
89. CTCGAAAC  -0.109
90. AGGAGGGC  -0.11
91. ACCCTTAT  -0.115
92. GTTCCCCA  -0.117
93. ATTTCCTC  -0.12
94. CGTCATTA  -0.122
95. CGCGTGGA  -0.127
96. AACGCGTC  -0.137
97. ATTTTTCA  -0.137
98. AAGCAAAA  -0.165
99. TAGGAACA  -0.169
100. CCGCCCCC  -0.17
101. AACTTCCC  -0.179
102. CTGGGAGC  -0.205
103. AAAAACTT  -0.215
104. GCGAAATA  -0.228
105. GTTAGGGA  -0.229
106. AATAAAAG  -0.243
107. AGAAGAGA  -0.255
108. GAACTTCC  -0.269
109. TAGAGAAA  -0.313
